Measured values reported in PubChem BioAssay AID1645882 (National Center for Advancing Translational Sciences (NCATS), 2021).
The whole screen tested about 16,000 compounds, of which about 120 (0.75%) were called active. Not shown: some 4% with an inconclusive outcome. The call rests on the fitted dose curve; in most records, active means well fitted inhibition curve with a large enough effect; inconclusive means small, poorly fitted or top-dose-only effect; inactive means no such curve, though single readings can be large or run the other way. The list shows a part of the results.

target: Rap guanine nucleotide exchange factor 3 (Homo sapiens) (UniProt O95398); experiment: Validation qHTS for antagonist of cAMP-regulated guanine nucleotide exchange factor 3 (EPAC1); conditions: EPAC1 Rap1B-BODIPY-GDP exchange, fluorescence; series mostly up to 150 µM; activity change, negative = inhibition: at the top concentration;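 further: plate controls were DMSO for no effect and ATA control for full effect; nearly all actives have a fitted effect of over 75% in size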
Procedure, shortened: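 Nucleotide exchange followed as fluorescence loss when BODIPY-GDP leaves Rap1B (480 nm excitation, 540 nm emission), read at 5 min intervals over 30 min. Reaction: 100 nM EPAC1, 250 nM RAP1B-BODIPY-GDP, 50 uM GDP; ATA and DMSO define normalization.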

Sequence of UniProt O95398 (O95398 whole entry, looked up): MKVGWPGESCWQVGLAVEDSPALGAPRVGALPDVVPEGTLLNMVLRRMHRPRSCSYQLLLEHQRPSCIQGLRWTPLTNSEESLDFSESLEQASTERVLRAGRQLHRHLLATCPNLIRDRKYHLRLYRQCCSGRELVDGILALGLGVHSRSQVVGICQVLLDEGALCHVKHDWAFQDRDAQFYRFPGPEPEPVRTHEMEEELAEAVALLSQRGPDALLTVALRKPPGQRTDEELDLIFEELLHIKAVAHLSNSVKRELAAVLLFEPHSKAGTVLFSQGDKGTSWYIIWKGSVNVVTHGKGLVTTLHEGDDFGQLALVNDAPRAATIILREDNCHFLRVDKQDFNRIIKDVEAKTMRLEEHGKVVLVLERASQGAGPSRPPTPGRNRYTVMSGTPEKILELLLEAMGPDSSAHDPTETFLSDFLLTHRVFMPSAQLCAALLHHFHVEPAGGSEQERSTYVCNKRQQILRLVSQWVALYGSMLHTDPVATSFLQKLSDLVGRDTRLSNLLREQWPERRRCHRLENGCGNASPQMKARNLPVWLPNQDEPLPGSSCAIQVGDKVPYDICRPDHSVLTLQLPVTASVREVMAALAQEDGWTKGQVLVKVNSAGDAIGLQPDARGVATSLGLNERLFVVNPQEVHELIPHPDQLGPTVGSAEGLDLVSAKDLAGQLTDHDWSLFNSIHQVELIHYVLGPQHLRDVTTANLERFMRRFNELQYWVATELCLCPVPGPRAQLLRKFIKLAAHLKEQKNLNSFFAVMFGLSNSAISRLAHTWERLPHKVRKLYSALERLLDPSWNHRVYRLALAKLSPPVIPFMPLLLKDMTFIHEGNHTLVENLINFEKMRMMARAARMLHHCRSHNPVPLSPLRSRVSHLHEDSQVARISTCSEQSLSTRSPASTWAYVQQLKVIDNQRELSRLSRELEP

SMILES | activity change, negative = inhibition
COCC(=O)N1CCC[C@@]2(CCN(c3ncccn3)C2)C1 | inactive: 27.5%
CC(C)[C@H]1CC[C@@H](C)C[C@H]1O | inactive: 11%
COc1ccc(Oc2ncc3nc(CCc4ccccc4)c(=O)n(C)c3n2)cc1 | inactive: 3.05%
COc1ncc2nc(-c3ccc(Cl)cc3)c(=O)n(-c3ccccc3)c2n1 | inactive: 14.6%
CC(=O)N1CCC[C@@]2(CCN(C(=O)Nc3ccccc3)C2)C1 | inactive: 7.87%
CC(=O)NCCNc1ncncc1-c1ccccc1CN(C)C | inactive: -2.71%
O=C(O)[C@H]1CN(CCCP(=O)(O)O)CCN1 | inactive
CCC1CN(CCNC(=O)C2CCCCN2C)Cc2cc(OC)ccc2O1 (stereo not given) | inactive: 16.1%
COc1ccc2[nH]c3c(c2c1)CCNC3=O | inactive: 12%
COc1ccc(Oc2ncc3nc(-c4cccc(C#N)c4)c(=O)n(CCC#N)c3n2)cc1 | inactive: 11.3%
O=c1ccc2cc3ccoc3cc2o1 | inactive: 17.6%
COc1ccc(-c2nc3cnc(Oc4ccccc4)nc3n(CCC#N)c2=O)cc1 | inactive: -8.74%
CN(C)Cc1ccccc1-c1nc(N(C)C)c2ccccc2n1 | inactive: 12.8%
CN=c1nc(-c2ccccc2)n(-c2ccccc2)s1 | inactive: 2.72% [at 75.8 µM]
CCCC[C@@]1(C2CCCC2)Cc2cc(OCC(=O)O)c(Cl)c(Cl)c2C1=O | inactive: -11.5% [at 75.8 µM]
Nc1ccc(S(=O)(=O)NC(=O)c2ccccc2)cc1 | inactive
COc1cc2c(cc1OC)C1CC(=O)C(CC(C)C)CN1CC2 (stereo not given) | inactive: 4.04% [at 75.8 µM]
O=C(c1cc(C(F)(F)F)cc(C(F)(F)F)c1)N1CCC2(CC1)CN(Cc1ccncc1)C2 | inactive: -5.2%
C[N+](C)(C)CCOP(=O)(O)OP(=O)([O-])OC[C@H]1O[C@@H](n2ccc(N)nc2=O)[C@H](O)[C@@H]1O | inactive
C=C(CC)C(=O)c1ccc(OCC(=O)O)c(Cl)c1Cl | inactive
Cc1cnc(SCC2CCCO2)nc1C1CCCN(Cc2cc3c(cc2Cl)OCO3)C1 (stereo not given) | inactive: 8.22%
OCCCNCc1cc2cc3c(cc2nc1N1CCN(c2cccc(Cl)c2)CC1)OCO3 | inactive: -14.4%
OC[C@H]1O[C@@H](O[C@@H]2[C@@H](CO)O[C@](O)(CO)[C@H]2O)[C@H](O)[C@@H](O)[C@H]1O | inactive
CCCCCCOC(=O)C1(O)CC2OC1(C)n1c3ccccc3c3c4c(c5c6ccccc6n2c5c31)C(=O)NC4 (stereo not given) | inactive: -12.7% [at 15.3 µM]
Cn1cccc1C(=O)N1CCC[C@@]2(CCN(C(=O)Nc3cccc(F)c3)C2)C1 | inactive: 16%

SMILES | activity change, negative = inhibition
N#Cc1ccc(CN2CC3(CCN(C(=O)c4ccco4)CC3)C2)cc1 | inactive: 4.53%
COc1cccc(Nc2ncc3nc(-c4cccs4)c(=O)n(Cc4cccs4)c3n2)c1 | inactive: 36.1%
CCCCCCCCCCCCCCCC(=O)O[C@H](CC(=O)O)C[N+](C)(C)C | inactive: 0.0674%
CCCOC(C(=O)OC1CCN(C)CC1)(c1ccccc1)c1ccccc1 | inactive: 14.4%
CC1(C)CC[C@]2(C(=O)O)CC[C@@]3(C)C(=CCC4[C@@]5(C)CCC(O)C(C)(C)C5CC[C@@]43C)C2C1 (stereo not given in full) | inactive: 5.16%
COc1cccc(Cn2c(=O)c(-c3ccc(Cl)cc3)nc3cnc(N4CCN(C)CC4)nc32)c1 | inactive: 26.2%
CCCCCC1C(=O)CCC1CC(=O)OC (stereo not given) | inactive: 9.9%
CS(=O)(=O)Nc1cccc(-c2nc(NCCN3CCOCC3)c3ccccc3n2)c1 | inactive: 9.51%
CS(=O)(=O)c1ccc([C@@H](O)[C@@H](CF)NC(=O)C(Cl)Cl)cc1 | inactive: 14.1% [at 75.8 µM]
CCN(CC)CCCC(C)Nc1ccnc2cc(Cl)ccc12 (stereo not given) | inactive
CCCN1CCC(=O)N(CCN=[N+]=[N-])CC1 | inactive: 1%
CCc1nc2cc(C(=O)N(C)C3CCOC3)cc(NC(=O)c3ccccc3OC)c2n1C (stereo not given) | inactive: 2.07%
O=C(c1cc(C(F)(F)F)cc(C(F)(F)F)c1)N1CCC2(CCN(Cc3ccncc3)CC2)CC1 | inactive: 15.9%
COc1c2c(cc3c1C(CC(=O)c1c(O)c(OC)c4occc4c1OC)[N+](C)(C)CC3)OCO2 (stereo not given) | inactive: 17.6%
Cc1ccc2cc(CN(C(=O)c3ccc4c(c3)OCO4)C3CC3)c(N(C)C)nc2c1 | inactive: 20.3%
N#CC[C@H](Cc1ccccc1)N1CCN(CCc2ccccc2)CCC1=O | inactive: 13.5%
O=C1CC(c2ccccc2)Oc2ccccc21 (stereo not given) | inactive: -2.08%
FCOC(C(F)(F)F)C(F)(F)F | inactive: 12%
C[C@@H]1NS(=O)(=O)[C@H]2C[C@@H]3C=C[C@]2(O3)[C@H]1OC(=O)Nc1ccc(C(F)(F)F)cc1[N+](=O)[O-] | inactive: -18.1%
Cc1cccc(C)c1NC(=O)c1ccccc1C(=O)O | inactive: 13.3%
CCNC(=O)[C@H]1O[C@@H](n2cnc3c(N)nc(NCCc4ccc(CCC(=O)O)cc4)nc32)[C@H](O)[C@@H]1O | inactive: 14.4% [at 75.8 µM]
c1ccc2c(Nc3ccncc3)nc(-c3ccoc3)nc2c1 | inactive: 3.21%
CNCCNS(=O)(=O)c1cccc2cnccc12 | inactive
O=C(O)Cn1c(C(=O)Nc2nc(-c3ccccc3Cl)cs2)cc2ccccc21 | inactive: -11.7%
CC1CC[C@@]23CCC4(C)[C@@]5(C)CCC6C(C)(C)C(=O)CC[C@@]6(C)C5C=C[C@@]4(OC2=O)C3C1C (stereo not given in full) | inactive: 13.2%

SMILES | activity change, negative = inhibition
COc1cc(-c2c(OC)cccc2OC)cc2c1OCCN(Cc1cn[nH]c1-c1ccc(Cl)cc1)C2 | inactive: -6.31%
NNC(=O)CP(=O)(c1ccccc1)c1ccccc1 | inactive: 11.6%
C[C@](N)(Cc1ccc(O)cc1)C(=O)O | inactive
COc1cc2c(cc1OC)[C@@H]1CC(=O)[C@@H](CC(C)C)CN1CC2 | inactive: 9.84%
Cc1ccccc1-c1cc(-n2ccnc2)ncn1 | inactive: 16.8%
COc1ccc(NC(=O)N2CCC3(CC2)CCN(C(=O)c2csnn2)CC3)cc1 | inactive: 10.3%
CS(=O)(=O)N1CCC2(CCCN(c3ncccn3)C2)CC1 | inactive: 18.6%
N#CCCn1c(=O)c(CCc2ccccc2)nc2cnc(Nc3ccccc3)nc21 | inactive: 3.88%
O=c1c(-c2cccs2)nc2cnc(Oc3cccc(Cl)c3)nc2n1C1CC1 | inactive: 12.4%
O=Cc1cc2c3c(c1)CCCN3CCC2 | inactive: -25.4%
Cc1nc2cnc(N3CCN(C)CC3)nc2n(-c2ccccc2)c1=O | inactive: 7.27%
Cc1c(Br)cnc2ccccc12 | inactive: 19.6%
CS(=O)(=O)N1CCC2(CC1)CN(c1cccc(-c3ccccc3)c1)C2 | inactive: -8.93%
O=C(c1ccco1)N1CCC[C@@]2(CCN(c3ccncc3)C2)C1 | inactive: 13.7%
COCCn1c(=O)cnc2cnc(N3CCOCC3)nc21 | inactive: -7.33%
CC[C@H](C)[C@H](NC(=O)OCC1c2ccccc2-c2ccccc21)C(=O)O | inactive: 6.64%
CCN(CC)CCNC(=O)c1ccc(NS(C)(=O)=O)cc1 | inactive: 10.1% [at 75.8 µM]
O=C(c1ccncc1)N1CCC[C@@]2(CCN(Cc3ccncc3)C2)C1 | inactive: 32.6%
O=c1c(-c2cc(F)cc(F)c2)nc2cnc(N3CCNCC3)nc2n1C1CC1 | inactive: -2.04%
Nc1nc(N)c(N)c(=O)[nH]1 | inactive: 13.3%
c1cncc(-c2nccc(NCc3cccs3)n2)c1 | inactive: 4.55%
CC(C)CN1CC[C@@]2(CCCN(C(=O)c3cc(C(F)(F)F)cc(C(F)(F)F)c3)C2)C1 | inactive: -14.1%
CCOC(=O)OC(C)OC(=O)C1N2C(=O)C(NC(=O)C(N)c3ccccc3)C2SC1(C)C (stereo not given) | inactive: -6.65%
COc1cc(OC)c2cc(-c3ccncc3)cnc2c1 | inactive: 13%
O=C(COc1ccc(Cl)cc1)OCCNC12CC3CC(CC(C3)C1)C2 | inactive: 3.76%

SMILES | activity change, negative = inhibition
O=C(c1ccncc1)N1CCC2(CC1)CN(Cc1cc(C(F)(F)F)cc(C(F)(F)F)c1)C2 | inactive: 4.3%
NC(=O)N[C@@H](CCC(=O)O)C(=O)O | inactive: 5%
O=C[C@H](O)[C@@H](O)[C@H](O[C@H]1O[C@H](CO)[C@@H](O[C@H]2O[C@H](CO)[C@@H](O)[C@H](O)[C@H]2O)[C@H](O)[C@H]1O)[C@H](O)CO | inactive: 23%
COCCCC/C(=N\OCCN)c1ccc(C(F)(F)F)cc1 | inactive: 8.5% [at 75.8 µM]
CN(C)c1ncnc2ccc(-c3ccoc3)cc12 | inactive: 6.97%
COC(=O)N1CCC2(CCCN(c3ccc(-c4ccccc4)cc3)C2)CC1 | inactive: 27.7%
C[C@]12CCC(=O)C=C1CC[C@@H]1[C@@H]2C(=O)C[C@@]2(C)[C@H]1CC[C@]2(O)C(=O)CO | inactive
CCCc1nc(C(C)(C)O)c(C(=O)OCc2oc(=O)oc2C)n1Cc1ccc(-c2ccccc2-c2nn[nH]n2)cc1 | inactive: 20.8%
Cn1cccc1C(=O)N1CCC[C@@]2(CCN(c3ccccn3)C2)C1 | inactive: 15.7%
CC/C=C\C/C=C\C/C=C\C/C=C\C/C=C\CCCC(=O)O | inactive: 26.8%
CSc1nc(C(=O)N2CCOc3ccc(CN4CCN(Cc5ccccn5)CC4)cc3C2)cs1 | inactive: 20.8%
Cn1cccc1C(=O)N1CCC[C@@]2(CCN(Cc3ccccc3)C2)C1 | inactive: 13.3%
O=C(O)CNC(=O)CNC(=O)CNC(=O)CSC(=O)c1ccccc1 | inactive: 10.1%
CC1(C)S[C@@H]2[C@H](N=CN3CCCCCC3)C(=O)N2[C@H]1C(=O)O | inactive: 23.4%
COc1ccc(C(=O)N2CCC3(CCN(C(=O)Nc4cccc(C#N)c4)CC3)CC2)cc1 | inactive: 11.3%
Nc1ccc(C(=O)O)c(O)c1 (tested in a mixture with another compound) | inactive: 16%
COCCn1c(=O)c(-c2cc(F)cc(F)c2)nc2cnc(OCc3ccccc3)nc21 | inactive: -5.07%
Cc1ncc2c(c1CNS(=O)(=O)N(C)C)CCN(C(=O)c1ccc(-c3ccc(F)cc3)cc1)C2 | inactive: 7.52%
O=S1(=O)CCO[C@H]2Cc3ccccc3[C@H]2N1Cc1ccc(Cl)cc1 | inactive: 2.12%
Cc1ncoc1C(=O)N1CCOc2ccc(CN3CCN(c4ccccn4)CC3)cc2C1 | inactive: 8.39%
O=S(=O)(c1ccccc1)N1CCC[C@@]2(CCN(c3ccccc3)C2)C1 | inactive: 13.4%
CC#CCOC(=O)c1c(C)nc2sc3c(c2c1N)CC[C@@H](O)C3 | inactive: -4.85%
COc1cccc(Cn2cc(-c3cccc(C(F)(F)F)c3)nn2)c1 | inactive: -16.7%
CC1(C)C(OC(=O)CCC(=O)O)CC[C@]2(C)C1CC[C@@]1(C)C2C(=O)C=C2[C@@H]3C[C@@](C)(C(=O)O)CC[C@]3(C)CCC21C (stereo not given in full) | inactive: 20.1%
CC(=O)[C@]1(O)Cc2c(O)c3c(c(O)c2[C@@H](O[C@H]2C[C@H](N)[C@H](O)[C@H](C)O2)C1)C(=O)c1c(O)cccc1C3=O | inactive
